# Experimental data: the supplement of paper PMC3334620
# The full ranking holds about 33,000 sequences; the median of “E-score (-0.5 to 0.5)” is about -0.012, and the highest 2% start at about 0.27. Some of the results follow.
# Molecular target: T1, Vhr1 (UniProt P40522)
# T1 sequence: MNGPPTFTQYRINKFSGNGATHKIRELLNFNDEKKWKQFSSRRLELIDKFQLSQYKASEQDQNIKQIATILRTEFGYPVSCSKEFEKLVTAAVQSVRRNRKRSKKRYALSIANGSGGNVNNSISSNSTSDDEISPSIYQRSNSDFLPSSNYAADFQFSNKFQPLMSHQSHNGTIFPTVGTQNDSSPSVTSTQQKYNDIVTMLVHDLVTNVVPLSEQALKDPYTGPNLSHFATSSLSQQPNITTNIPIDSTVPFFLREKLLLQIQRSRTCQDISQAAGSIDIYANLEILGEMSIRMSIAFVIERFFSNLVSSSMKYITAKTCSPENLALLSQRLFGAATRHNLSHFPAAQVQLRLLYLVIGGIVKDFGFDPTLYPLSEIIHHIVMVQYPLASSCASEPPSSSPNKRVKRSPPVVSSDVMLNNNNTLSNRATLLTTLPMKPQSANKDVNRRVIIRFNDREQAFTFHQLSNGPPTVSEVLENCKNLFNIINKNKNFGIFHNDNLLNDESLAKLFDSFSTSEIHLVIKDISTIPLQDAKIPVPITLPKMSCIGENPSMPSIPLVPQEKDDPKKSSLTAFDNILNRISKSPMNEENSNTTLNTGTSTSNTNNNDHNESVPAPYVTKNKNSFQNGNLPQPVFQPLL
# Assay: PBM E-score (8-mer binding enrichment) (E-score (-0.5 to 0.5)); higher = stronger / more preferred TF binding; most listed sequences are background and not binding sites
# Settings: protein concentration: 200 nM; construct: GST-full length
# How it was run: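 Bound GST-tagged yeast transcription factors, applied at about 100-200 nM to double-stranded universal all-10-mer Agilent arrays, were detected with fluorescent anti-GST. Scans were normalised with masliner. A modified Wilcoxon-Mann-Whitney statistic, the E-score, was assigned to each ungapped eight-base word pooled with its reverse complement by the Universal PBM Analysis Suite.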
row,Sequence,PBM E-score
1,GGATCGTA,0.0854
2,GTCGGCTA,-0.0411
3,CTATCAGC,0.0442
4,CCATTGAA,-0.0169
5,ATTACGTG,0.204
6,CGCTTACG,-0.254
7,GGATCTAA,-0.203
8,ACACTCCA,0.0776
9,CTAACCCC,-0.231
10,GAGGGATA,-0.189
11,CGAAGCCA,-0.0788
12,AGGTACAA,-0.163
13,ATTCCGAC,0.156
14,AACCACAA,0.225
15,GCGCCTTA,0.0352
16,GTAACTAC,0.0678
17,AAATCTCT,-0.126
18,CGACAGAC,-0.00935
19,CGGAGGCA,-0.0597
20,ACGTTCCA,0.00922
21,ACGCAATC,0.0446
22,CCTGGACG,-0.0281
23,AACTAGGT,0.189
24,AGCAATTA,0.0218
25,AACTGAGG,-0.0666

row,Sequence,PBM E-score
1,GGTGAACA,-0.192
2,AATGACTG,0.271
3,CCACCCTC,0.246
4,CCCAGGAA,-0.116
5,ATGCCGAA,0.0852
6,GAAGACGA,0.0115
7,ACGTTGCA,-0.0853
8,ATTCGAAT,-0.074
9,CTTGGCTA,0.0867
10,AACCTGTA,-0.044
11,GACCCCGC,0.0882
12,ACTATTTG,0.0136
13,AGTGGACG,0.116
14,CGCTATTA,-0.0992
15,AGGTATCG,0.126
16,CTGGGGTC,0.0862
17,CAAAGGAA,-0.128
18,AAGTCTAT,-0.221
19,CATTTGGG,-0.0111
20,CTTAGGCA,-0.375
21,ACCGTCAC,-0.227
22,AAGAGGTA,0.0122
23,GACATCTC,0.0794
24,CGTTGTAG,0.182
25,AACGCTTA,-0.217

row,Sequence,PBM E-score
1,TATGCGAA,0.039
2,AGACTAAT,0.0912
3,ACCAGATA,0.16
4,CCCCACTC,0.128
5,AGCTGGCG,-0.00168
6,ACCTGCTC,-0.044
7,CATGTAAC,0.0748
8,TAGAGTGA,-0.0169
9,CGCACGTC,-0.0624
10,GCAATTCA,-0.181
11,GAGCCGTA,0.149
12,CACCAATA,0.0415
13,CAACTGGC,-0.2
14,CCTCCACC,-0.01
15,GAGATCGA,-0.0713
16,GCTGACCC,0.0256
17,ACGATCAA,-0.0543
18,ACGGAGCA,0.0773
19,ACTTTACT,-0.0267
20,AGTTATTC,-0.101
21,ATACAGTG,0.159
22,ACTTGGTA,0.0479
23,CTGGGGAC,-0.227
24,GGGGTACC,0.0141
25,AGTGGTTA,0.147

row,Sequence,PBM E-score
1,AGGGTAGG,-0.0156
2,CCATACGC,0.182
3,AAGCCTTA,-0.209
4,GTCGTGCA,0.141
5,AAAGACTG,-0.308
6,GCGGCGAA,-0.0346
7,TAGTAGAA,-0.199
8,ATTGTAGA,0.136
9,GGGCTTAA,-0.22
10,ATGGATCC,0.144
11,GATTCGAC,0.183
12,ATGGGGTA,0.0673
13,TCGGAAGA,-0.0282
14,GTACCAAA,0.11
15,GGGTTGTA,-0.0153
16,CGAGGACG,-0.0826
17,AACCTCAA,-0.195
18,CATATGCG,0.0901
19,GGCTCTTA,-0.0849
20,ATTTACCG,-0.0838
21,GTCCGGTA,0.0107
22,CGTATTTC,-0.271
23,GGTAGAGA,-0.075
24,AAATCGCG,-0.0259
25,CAATACCA,0.124

row,Sequence,PBM E-score
1,TCTACTAA,-0.0395
2,TGCGCGAA,0.0957
3,TCCATCGA,-0.0194
4,ATAACTAT,0.00668
5,GGCATGAC,0.0635
6,TACTAATA,0.0951
7,GCGCGCAC,0.122
8,CGGTGACG,-0.0241
9,CTCATCTC,0.0788
10,AACGCGAA,0.0891
11,GTCGAGTA,0.163
12,GTTAGACA,0.0943
13,ACGCCGCC,0.0117
14,AGTGAGTA,0.192
15,CACTTTTA,-0.165
16,AATCCGGA,0.108
17,AATGCGTG,0.108
18,CGCCTCAA,-0.157
19,CGTGTGTA,0.21
20,CCGCTGAA,-0.0213
21,CCTGCTCA,0.0214
22,ACTACGAG,0.185
23,GCCTTGAC,-0.167
24,AAAAAGGT,-0.231
25,AAGTAACA,0.0225

row,Sequence,PBM E-score
1,CTAGTAGC,-0.0231
2,CCAGCGGC,0.13
3,GCCCAGAA,-0.202
4,CCTTAGCG,-0.0778
5,AAGGTCTA,-0.13
6,AATCGCAT,0.227
7,ATTGAAGC,-0.163
8,TATTTGAA,-0.138
9,CCAACACA,0.0929
10,ACTCATAC,0.284
11,CTTAGACA,-0.213
12,ACTGTTAT,-0.0145
13,AAGTAACT,-0.112
14,ATCTGCAT,0.181
15,CCAGCCGG,-0.039
16,TCAGTGGA,0.0669
17,ACAAACGA,0.144
18,AGTGATAG,-0.0174
19,TGCACGAA,-0.00326
20,TCAAAAAA,0.0331
21,ATCGCGAA,0.22
22,AAGGCGAT,-0.189
23,CTGGGCGA,-0.0143
24,CGAGTTGC,0.0125
25,ATCGACCG,-0.243

row,Sequence,PBM E-score
1,GCCTCACA,-0.00274
2,CGAAATCA,0.146
3,CGAGAAGA,-0.234
4,CACTGAGG,0.174
5,CCAGAATC,0.119
6,GCTCTAAC,-0.0794
7,ATTCTGAC,0.012
8,ATGTGAAG,0.0331
9,TGTAGTAA,0.0329
10,AATTGAAA,-0.152
11,CATCATTC,0.0958
12,GATAATCA,0.301
13,ATGAGTGA,0.248
14,TCAACCCA,0.0928
15,AGGTAAGC,-0.22
16,CAGAAGTA,0.00109
17,CTCGGCTC,0.128
18,CATGGGGC,0.0394
19,GCAGCCAA,0.0642
20,GAGCCATA,0.166
21,AAACCATA,0.0822
22,AAGAGCAC,-0.0616
